Experimental findings from patent publication US20170173112A1 (Daiichi Sankyo, published 2017) are described below.

For orientation: IC50 means the concentration needed to halve the response being measured. The term Kd denotes the free concentration of one partner at which half of the binding sites on the other are occupied at equilibrium, for simple one-to-one binding. The low end stands for higher affinity, the high end for lower affinity. A word on the koff: it is a measure of how fast the partners let go of each other. A low value points to a long-lived complex. In general, kon refers to the rate constant with which the complex forms. Read a high kon as faster complex formation. What is called EC50 is the concentration at which the effect is half-maximal.

Experiment [1] concerns the target T1, human PCSK9 (SEQ ID NO: 34) containing a C-terminal FLAG tag (human, UniProt Q8NBP7 31-152; Q8NBP7 153-692). The experiment is described as follows: cell-based or functional assay.
Experiment [2] addresses T1, human PCSK9 (SEQ ID NO: 34) containing …. The experiment can be described thus: competition ECL assay, 10 pM hPCSK9-Bio, plate coated with benchmark antibody (SEQ ID NOs: 29 and 33) as competitor.
Experiment [3] has the same target. The experiment is described as follows: SPR (Biacore T200), biotinylated human PCSK9 captured, 1:1 model. (Surface plasmon resonance follows binding to a sensor surface in real time, without labels.)
Experiment [4] shares this target. The experiment can be described thus: SPR (Biacore T200), biotinylated PCSK9 captured, 1:1 model.
Experiment [5] has the same target. The experiment is described as follows: SPR (Biacore T200), hPCSK9-Bio captured, 1:1 model.
The next experiment concerns the target T2, mouse PCSK9 (mouse, UniProt Q80W65 35-694, limits assumed).
T2 construct: biotinylated in the assays; also called mPCSK9
The experiment can be described thus: binding ELISA, biotinylated PCSK9 on Neutravidin plate. Background: ELISA stands for enzyme-linked immunosorbent assay.

Experiment [6] concerns the target T3, gain of function hPCSK9_D374Y mutant (human, UniProt Q8NBP7 31-152; Q8NBP7 153-692).
T3 construct: also called human PCSK9_D374Y; not shown: FLAG tag
Described as above.

Experiment [7] concerns the target T1, human PCSK9 (SEQ ID NO: 34) containing …. The experiment is described as above.

mouse PCSK9, sequence (Q80W65 35-694 limits assumed): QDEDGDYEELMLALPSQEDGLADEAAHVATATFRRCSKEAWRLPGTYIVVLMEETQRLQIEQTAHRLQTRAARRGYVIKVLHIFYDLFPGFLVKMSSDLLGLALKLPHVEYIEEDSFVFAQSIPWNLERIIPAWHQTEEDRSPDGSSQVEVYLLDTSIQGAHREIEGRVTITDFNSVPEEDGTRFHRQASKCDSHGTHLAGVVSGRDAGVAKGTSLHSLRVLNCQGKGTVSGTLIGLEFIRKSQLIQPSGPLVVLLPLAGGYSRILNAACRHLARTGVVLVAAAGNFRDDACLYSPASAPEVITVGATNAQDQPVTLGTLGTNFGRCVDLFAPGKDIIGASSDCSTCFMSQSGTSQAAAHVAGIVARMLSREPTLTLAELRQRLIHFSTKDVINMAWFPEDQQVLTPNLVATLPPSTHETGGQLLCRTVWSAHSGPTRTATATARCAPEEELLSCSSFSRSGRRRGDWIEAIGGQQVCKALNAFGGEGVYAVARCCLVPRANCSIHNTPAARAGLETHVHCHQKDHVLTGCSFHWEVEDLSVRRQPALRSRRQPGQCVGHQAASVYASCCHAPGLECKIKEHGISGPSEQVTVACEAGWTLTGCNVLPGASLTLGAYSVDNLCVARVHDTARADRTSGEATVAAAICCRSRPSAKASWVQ

B1: PEGylated lipocalin mutein variant SEQ ID NO: 31 (designed binder)
chain: ASDEEIQDVSGTWYLKAMTVDFSRGDAIWTSVTPMTLTTLEGGNLEAKVTMMYAGRSQEVKAVLERTDEPGKYTTMGGSHVAYIIRSPVKDHYIFYSEGPHQGAPVPGVWLVGRDPKNNLEALEDFEKAAGARGLSTESILIPRQSETSSPGSAWSHPQFEK
modifications: branched PEG40 conjugated; residue not stated
As for B1, in experiment [1], the “IC50, LDL-R depletion assay on HepG2 cells with 100 nM PCSK9” value is 82.6 nM and the “IC90, LDL-R depletion assay on HepG2 cells with 100 nM PCSK9” value came out at 173 nM. The IC50 in experiment [2] turned out to be 0.53 nM.

B2: lipocalin mutein SEQ ID NO: 65 (designed binder)
chain: ASDEEIQDVSGTWYLKAMTVDFSRGDAIWTSVTPMTLTTLEGGNLEAKVTMMYAGRSQEVKAVLERTDEPGKYTTMGGSHVAYIIRSPVKDHYIFYSEGPAQGAPVPGVWLVGRDPKNNLEALEDFEKAAGARGLSTESILIPRQSETSSPGSAWSHPQFEK
For the molecule B2, in experiment [3], the Kd turned out to be 0.32 nM, the koff came out at 7.61e-05 s⁻¹ and the kon was determined as 239000 M⁻¹ s⁻¹.

B3: lipocalin mutein SEQ ID NO: 69 (designed binder)
chain: ASDEEIQDVSGTWYLKAMTVDFSRGDAIWTSVTPMTLTTLEGGNLEAKVTMMYAGRSQEVKAVLERTDEPGKYTVMGGSHVAYIIRSPVKDHYIFYSEGPKQGAPVPGVWLVGRDPKNNLEALEDFEKAAGARGLSTESILIPRQSETSSPGSAWSHPQFEK
B3: in experiment [3], binding was put at a Kd of 0.29 nM, the koff came out at 7.66e-05 s⁻¹ and the kon was 263000 M⁻¹ s⁻¹.

B4: lipocalin mutein SEQ ID NO: 66 (designed binder)
chain: ASDEEIQDVSGTWYLKAMTVDFSRGDAIWTSVTPMTLTTLEGGNLEAKVTMMYAGRSQEVKAVLERTDEPGKYTVMGGSHVAYIIRSPVKDHYIFYSEGPDQGAPVPGVWLVGRDPKNNLEALEDFEKAAGARGLSTESILIPRQSETSSPGSAWSHPQFEK
In experiment [3], B4 came in with a dissociation constant (Kd) of 0.33 nM, a koff of 8.17e-05 s⁻¹ and a kon of 251000 M⁻¹ s⁻¹.

B5: lipocalin mutein SEQ ID NO: 68 (designed binder)
chain: ASDEEIQDVSGTWYLKAMTVDFSRGDAIWTSVTPMTLTTLEGGNLEAKVTMMYAGRSQEVKAVLERTDEPGKYTVMGGSHVAYIIRSPVKDHYIFYSEGPPQGAPVPGVWLVGRDPKNNLEALEDFEKAAGARGLSTESILIPRQSETSSPGSAWSHPQFEK
In experiment [3], B5 gave an equilibrium dissociation constant (Kd) of 0.31 nM, a koff of 8.03e-05 s⁻¹ and a kon of 263000 M⁻¹ s⁻¹.

B6: lipocalin mutein SEQ ID NO: 71 (designed binder)
chain: ASDEEIQDVSGTWYLKAMTVDFSRGDAIWTSVTPMTLTTLEGGNLEAKVTMMYAGRSQEVKAVLERTDEPGKYTVMGGSHVAYIIRSPVKDHYIFYSEGPLQGAPVPGVWLVGRDPKNNLEALEDFEKAAGARGLSTESILIPRQSETSSPGSAWSHPQFEK
In experiment [3], B6 had a Kd of 0.32 nM, a koff of 8.81e-05 s⁻¹ and a kon of 272000 M⁻¹ s⁻¹.

B7: lipocalin mutein SEQ ID NO: 67 (designed binder)
chain: ASDEEIQDVSGTWYLKAMTVDFSRGDAIWTSVTPMTLTTLEGGNLEAKVTMMYAGRSQEVKAVLERTDEPGKYTMMGGSHVAYIIRSPVKDHYIFYSEGPVQGAPVPGVWLVGRDPKNNLEALEDFEKAAGARGLSTESILIPRQSETSSPGSAWSHPQFEK
In experiment [3], B7 showed an equilibrium dissociation constant (Kd) of 0.31 nM, a koff of 7.6e-05 s⁻¹ and a kon of 249000 M⁻¹ s⁻¹.

B8: lipocalin mutein SEQ ID NO: 64 (designed binder)
chain: ASDEEIQDVSGTWYLKAMTVDFSRGDAIWTSVTPMTLTTLEGGNLEAKVTMMYAGRSQEVKAVLERTDEPGKYTVMGGSHVAYIIRSPVKDHYIFYSEGPRQGAPVPGVWLVGRDPKNNLEALEDFEKAAGARGLSTESILIPRQSETSSPGSAWSHPQFEK
Consider B8, for which, in experiment [3], the Kd stood at 0.22 nM, the koff was 7.25e-05 s⁻¹ and the kon is 323000 M⁻¹ s⁻¹.

B9: lipocalin mutein SEQ ID NO: 11 (designed binder)
chain: ASDEEIQDVSGTWYLKAMTVDWRLDNELWTSVTPMTLTTLEGGNLEAKVTMMYAGRSQEVKAVLEKTDEPGKYTAQGGSHVAYIIRSHVKDHYIFYSEGPRNGAPVPGVWLVGRDPKNNLEALEDFEKAAGARGLSTESILIPRQSETSSPGSAWSHPQFEK
notes: human tear lipocalin mutein
B9: in experiment [4], the affinity, expressed as Kd, was 1.89 nM; the koff came out at 8.9e-05 s⁻¹; the kon amounted to 47000 M⁻¹ s⁻¹.

B10: lipocalin mutein SEQ ID NO: 70 (designed binder)
chain: ASDEEIQDVSGTWYLKAMTVDFSRGDAIWTSVTPMTLTTLEGGNLEAKVTMMYAGRSQEVKAVLERTDEPGKYTTMGGSHVAYIIRSPVKDHYIFYSEGPRQGAPVPGVWLVGRDPKNNLEALEDFEKAAGARGLSTESILIPRQSETSSPGSAWSHPQFEK
In experiment [3], B10 came in with an equilibrium dissociation constant (Kd) of 0.33 nM, a koff of 7.39e-05 s⁻¹ and an association rate constant (kon) of 223000 M⁻¹ s⁻¹.

B11: lipocalin mutein SEQ ID NO: 63 (designed binder)
chain: ASDEEIQDVSGTWYLKAMTVDFSRGDAIWTSVTPMTLTTLEGGNLEAKVTMMYAGRSQEVKAVLERTDEPGKYTVMGGSHVAYIIRSPVKDHYIFYSEGPGQGAPVPGVWLVGRDPKNNLEALEDFEKAAGARGLSTESILIPRQSETSSPGSAWSHPQFEK
In experiment [3], B11 registered a Kd of 0.33 nM, a koff of 7.84e-05 s⁻¹ and a kon of 235000 M⁻¹ s⁻¹.

B12: lipocalin mutein SEQ ID NO: 25 (designed binder)
chain: ASDEEIQDVSGTWYLKAMTVDRFKIASWPRSVTPMTLTTLEGGNLEAKVTMNWWGRSQDVKAVLGKTDEPGKYTAQGDSHVSYIIRSHVKDHYILYSVGNLQGETVPGVWLVGRDPKNNLEALEDFEKAAGARGLSTESILIPRQSETSSPGSAWSHPQFEK
notes: human tear lipocalin mutein
Regarding B12, in experiment [5], binding was characterised by a dissociation constant (Kd) of 0.24 nM, the off-rate constant (koff) came out at 0.000105 s⁻¹ and the kon came to 436000 M⁻¹ s⁻¹.

B13: lipocalin mutein SEQ ID NO: 28 (designed binder)
chain: ASDEEIQDVSGTWYLKAMTVDRFKIGAWPRSVTPMTLTTLEGGNLEAKVTMNWWGRSQEVKAVLEKTDEPGKYTATGGSHVAYIIRSHVKDHYIFYSEGKLQGEPVPGVWLVGRDPKNNLEALEDFEKAAGARGLSTESILIPRQSETSSPGSAWSHPQFEK
notes: human tear lipocalin mutein
For B13, in experiment [5], binding was put at a Kd of 0.29 nM, the koff was found to be 0.000198 s⁻¹ and the kon amounted to 684000 M⁻¹ s⁻¹.

B14: lipocalin mutein SEQ ID NO: 26 (designed binder)
chain: ASDEEIQDVSGTWYLKAMTVDRFKIASWPRSVTPMTLTTLEGGNLEAKVTMNWWGRSQEVKAVLEKTDEPGKYTAVGGSHVAYIIRSHVKDHYIFYSEGKLQGEPVPGVWLVGRDPKNNLEALEDFEKAAGARGLSTESILIPRQSETSSPGSAWSHPQFEK
notes: human tear lipocalin mutein
In experiment [5], B14 displayed a Kd of 0.34 nM, a koff of 0.00023 s⁻¹ and a kon of 668000 M⁻¹ s⁻¹.

B15: lipocalin mutein SEQ ID NO: 27 (designed binder)
chain: ASDEEIQDVSGTWYLKAMTVDRFKIGSWPRSVTPMTLTTLEGGNLEAKVTMNWRGRSQEVKAVLEKTDEPGKYTAQGGSHVAYIIRSHVKDHYIFYSEGKLQGEPVPGVWLVGRDPKNNLEALEDFEKAAGARGLSTESILIPRQSETSSPGSAWSHPQFEK
notes: human tear lipocalin mutein
In experiment [5], B15 returned a Kd of 0.42 nM, a koff of 0.00031 s⁻¹ and a kon of 734000 M⁻¹ s⁻¹.

B16: lipocalin mutein SEQ ID NO: 5 (designed binder)
chain: ASDEEIQDVSGTWYLKAMTVDHEWNGHYYTSVTPMTLTTLEGGNLEAKVTMSYRGRSQEVKAVLEKTDEPGKYTAPGGQHVAYIIRSHVKDHYIFYSEGSWPGYPVPGVWLVGRDPKNNLEALEDFEKAAGARGLSTESILIPRQSETSSPGSAWSHPQFEK
notes: human tear lipocalin mutein
For the molecule B16, in experiment [4], binding was characterised by a dissociation constant (Kd) of 4.8 nM, the koff amounted to 0.000163 s⁻¹ and the kon amounted to 34000 M⁻¹ s⁻¹. This molecule returned a 50% effective concentration (EC50) in the experiment with mouse PCSK9 of 30 nM. In experiment [6], this molecule had an EC50 of 2.9 nM. In experiment [7], this molecule had an EC50 of 5.1 nM.

B17: lipocalin mutein SEQ ID NO: 12 (designed binder)
chain: ASDEEIQDVSGTWYLKAMTLDWQCDTGLWTSVTPMTLTTLEGGNLEAKVTMSYAGAFQEVKAVLEKTDEPGKYTADGGKHVAYIIRSHVKDHYIFYSEGECGGWPVPGVWLVGRDPKNNLEALEDFEKAAGARGLSTESILIPRQSETSSPGSAWSHPQFEK
notes: human tear lipocalin mutein
B17: in experiment [4], binding was put at a Kd of 6.4 nM, the koff was found to be 0.000156 s⁻¹ and the kon is 24400 M⁻¹ s⁻¹.

B18: lipocalin mutein SEQ ID NO: 9 (designed binder)
chain: ASDEEIQDVSGTWYLKAMTVDTEHLADWANSVTPMTLTTLEGGNLEAKVTMHQPGRSQEVKAVLEKTDEPGKYTAIGGSHVAYIIRSHVKDHYIFYSEGAYPGSPVPGVWLVGRDPKNNLEALEDFEKAAGARGLSTESILIPRQSETSSPGSAWSHPQFEK
notes: human tear lipocalin mutein
Turning to B18, the affinity in experiment [4], expressed as Kd, was 20.6 nM. This molecule also gave a koff in experiment [4] of 0.0048 s⁻¹. In experiment [4], this molecule yielded a kon of 233000 M⁻¹ s⁻¹. The EC50 with mouse PCSK9 amounted to 16.2 nM; in experiment [6], 1.1 nM; in experiment [7], 5.6 nM.

B19: lipocalin mutein SEQ ID NO: 10 (designed binder)
chain: ASDEEIQDVSGTWYLKAMTVDRADMGDWPNSVTPMTLTTLEGGNLEAKVTMFTRGRSQEVKAVLEKTDEPGKYTATGGEHVAYIIRSHVKDHYIFYSEGTLTGRPVPGVWLVGRDPKNNLEALEDFEKAAGARGLSTESILIPRQSETSSPGSAWSHPQFEK
notes: human tear lipocalin mutein
In experiment [4], B19 registered a Kd of 12.6 nM, a koff of 0.00719 s⁻¹ and a kon of 570000 M⁻¹ s⁻¹.
